Changes are numbered by the printed parent chain. Names may count otherwise. Results are given in words; binding and its absence hold for the method and conditions named. In cells and extracts the contact can be indirect. Some entries that bind do so weakly or less than the wild type. Tags and fused reporters may be left off the sequences shown. Blank lines part the entries; values can stand above or below the binder they belong to.
Assays:
[1] = biological target: T1, HA-tagged full-length wild-type human LATS2 (human) (UniProt Q9NRM7); assay: co-IP; HEK293 cells co-expressing myc-MOB1A variants and HA-tagged kinases; IP with anti-HA (12CA5), blot anti-myc; low-stringency buffer (30 mM HEPES pH 7.4, 20 mM KCl, 1% TX-100)
T1 sequence: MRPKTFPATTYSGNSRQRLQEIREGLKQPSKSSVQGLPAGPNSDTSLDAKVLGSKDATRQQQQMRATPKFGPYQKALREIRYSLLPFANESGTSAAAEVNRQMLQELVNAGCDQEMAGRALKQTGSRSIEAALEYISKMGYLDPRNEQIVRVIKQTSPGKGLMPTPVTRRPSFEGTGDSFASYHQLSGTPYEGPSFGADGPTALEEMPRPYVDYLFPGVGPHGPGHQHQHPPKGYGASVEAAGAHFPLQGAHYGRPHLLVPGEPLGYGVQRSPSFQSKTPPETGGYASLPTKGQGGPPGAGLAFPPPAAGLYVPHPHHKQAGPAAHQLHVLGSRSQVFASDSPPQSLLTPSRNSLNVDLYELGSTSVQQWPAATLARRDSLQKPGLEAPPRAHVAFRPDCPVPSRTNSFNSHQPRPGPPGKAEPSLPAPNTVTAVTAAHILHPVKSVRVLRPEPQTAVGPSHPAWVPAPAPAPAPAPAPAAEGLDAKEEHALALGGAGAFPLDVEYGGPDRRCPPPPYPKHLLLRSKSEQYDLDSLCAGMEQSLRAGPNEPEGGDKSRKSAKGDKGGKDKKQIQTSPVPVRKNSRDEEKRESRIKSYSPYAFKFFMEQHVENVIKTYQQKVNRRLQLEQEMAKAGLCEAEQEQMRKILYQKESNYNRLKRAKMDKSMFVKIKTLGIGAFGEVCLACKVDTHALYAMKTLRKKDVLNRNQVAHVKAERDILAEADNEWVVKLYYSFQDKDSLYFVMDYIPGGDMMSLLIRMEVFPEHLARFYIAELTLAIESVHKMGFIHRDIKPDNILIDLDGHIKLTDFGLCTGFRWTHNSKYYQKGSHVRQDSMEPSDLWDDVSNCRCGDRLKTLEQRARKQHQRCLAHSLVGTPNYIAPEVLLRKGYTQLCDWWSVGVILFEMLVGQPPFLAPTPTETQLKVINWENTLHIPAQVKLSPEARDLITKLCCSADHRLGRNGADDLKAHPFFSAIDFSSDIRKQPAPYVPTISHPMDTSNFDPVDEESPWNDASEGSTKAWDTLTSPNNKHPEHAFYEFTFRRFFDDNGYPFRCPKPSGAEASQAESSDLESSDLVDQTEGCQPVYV

By UniProt entry, the sequences of proteins in these tests, tags left out.
UniProt Q9Y2H1: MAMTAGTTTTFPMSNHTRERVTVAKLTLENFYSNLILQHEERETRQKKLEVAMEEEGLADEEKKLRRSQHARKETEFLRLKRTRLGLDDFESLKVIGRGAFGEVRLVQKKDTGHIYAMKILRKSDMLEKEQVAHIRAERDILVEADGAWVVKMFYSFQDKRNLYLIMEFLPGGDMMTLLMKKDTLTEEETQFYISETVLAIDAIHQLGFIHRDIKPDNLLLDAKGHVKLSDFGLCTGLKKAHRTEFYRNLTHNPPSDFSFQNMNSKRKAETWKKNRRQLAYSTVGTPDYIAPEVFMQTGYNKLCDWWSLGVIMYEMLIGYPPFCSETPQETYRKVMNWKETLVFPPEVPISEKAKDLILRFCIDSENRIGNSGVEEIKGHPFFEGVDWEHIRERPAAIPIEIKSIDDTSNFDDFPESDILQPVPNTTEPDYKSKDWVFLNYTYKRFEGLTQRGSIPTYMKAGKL
UniProt Q15208: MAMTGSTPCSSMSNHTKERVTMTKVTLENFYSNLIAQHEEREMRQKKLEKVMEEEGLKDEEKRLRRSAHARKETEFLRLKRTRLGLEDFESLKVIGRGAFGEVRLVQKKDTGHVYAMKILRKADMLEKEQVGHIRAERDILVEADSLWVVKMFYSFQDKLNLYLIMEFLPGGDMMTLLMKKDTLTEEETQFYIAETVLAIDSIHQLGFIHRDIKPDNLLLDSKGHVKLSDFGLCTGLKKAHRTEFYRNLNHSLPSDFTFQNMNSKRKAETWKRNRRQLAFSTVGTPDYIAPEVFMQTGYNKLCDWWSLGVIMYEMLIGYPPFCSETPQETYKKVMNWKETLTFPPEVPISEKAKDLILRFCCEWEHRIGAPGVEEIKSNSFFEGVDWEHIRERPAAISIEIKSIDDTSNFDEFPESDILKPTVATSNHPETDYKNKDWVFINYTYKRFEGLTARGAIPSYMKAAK
UniProt Q9NBK5: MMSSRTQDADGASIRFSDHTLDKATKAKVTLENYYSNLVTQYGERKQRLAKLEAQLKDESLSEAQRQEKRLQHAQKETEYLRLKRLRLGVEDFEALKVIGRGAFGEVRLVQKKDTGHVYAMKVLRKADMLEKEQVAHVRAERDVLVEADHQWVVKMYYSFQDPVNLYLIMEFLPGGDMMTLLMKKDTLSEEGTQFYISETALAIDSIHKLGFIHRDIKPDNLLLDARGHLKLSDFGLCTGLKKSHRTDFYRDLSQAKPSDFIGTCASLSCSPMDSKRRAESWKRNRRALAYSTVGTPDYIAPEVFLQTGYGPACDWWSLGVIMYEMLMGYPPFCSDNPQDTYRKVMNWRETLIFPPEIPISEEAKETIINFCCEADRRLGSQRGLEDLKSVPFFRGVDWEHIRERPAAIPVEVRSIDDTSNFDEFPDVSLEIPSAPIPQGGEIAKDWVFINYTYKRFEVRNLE

[2] = biological target: T2, full-length HA-MST2 wild-type (human) (UniProt Q13188); assay: as above
T2 sequence: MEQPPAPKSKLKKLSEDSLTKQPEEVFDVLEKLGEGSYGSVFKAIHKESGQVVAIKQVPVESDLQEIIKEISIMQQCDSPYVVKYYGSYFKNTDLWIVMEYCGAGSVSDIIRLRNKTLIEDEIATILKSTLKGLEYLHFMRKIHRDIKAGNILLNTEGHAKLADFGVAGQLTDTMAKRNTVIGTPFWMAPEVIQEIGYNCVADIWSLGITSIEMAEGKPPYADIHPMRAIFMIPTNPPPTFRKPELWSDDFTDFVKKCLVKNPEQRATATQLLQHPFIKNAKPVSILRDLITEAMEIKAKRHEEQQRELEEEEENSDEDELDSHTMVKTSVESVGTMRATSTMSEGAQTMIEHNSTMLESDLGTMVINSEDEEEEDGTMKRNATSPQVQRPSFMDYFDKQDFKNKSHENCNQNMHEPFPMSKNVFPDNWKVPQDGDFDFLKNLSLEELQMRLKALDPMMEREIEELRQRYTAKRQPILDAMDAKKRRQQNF

[3] = biological target: T3, HA-tagged wild-type human LATS1 (human) (UniProt O95835); assay: as above
T3 sequence: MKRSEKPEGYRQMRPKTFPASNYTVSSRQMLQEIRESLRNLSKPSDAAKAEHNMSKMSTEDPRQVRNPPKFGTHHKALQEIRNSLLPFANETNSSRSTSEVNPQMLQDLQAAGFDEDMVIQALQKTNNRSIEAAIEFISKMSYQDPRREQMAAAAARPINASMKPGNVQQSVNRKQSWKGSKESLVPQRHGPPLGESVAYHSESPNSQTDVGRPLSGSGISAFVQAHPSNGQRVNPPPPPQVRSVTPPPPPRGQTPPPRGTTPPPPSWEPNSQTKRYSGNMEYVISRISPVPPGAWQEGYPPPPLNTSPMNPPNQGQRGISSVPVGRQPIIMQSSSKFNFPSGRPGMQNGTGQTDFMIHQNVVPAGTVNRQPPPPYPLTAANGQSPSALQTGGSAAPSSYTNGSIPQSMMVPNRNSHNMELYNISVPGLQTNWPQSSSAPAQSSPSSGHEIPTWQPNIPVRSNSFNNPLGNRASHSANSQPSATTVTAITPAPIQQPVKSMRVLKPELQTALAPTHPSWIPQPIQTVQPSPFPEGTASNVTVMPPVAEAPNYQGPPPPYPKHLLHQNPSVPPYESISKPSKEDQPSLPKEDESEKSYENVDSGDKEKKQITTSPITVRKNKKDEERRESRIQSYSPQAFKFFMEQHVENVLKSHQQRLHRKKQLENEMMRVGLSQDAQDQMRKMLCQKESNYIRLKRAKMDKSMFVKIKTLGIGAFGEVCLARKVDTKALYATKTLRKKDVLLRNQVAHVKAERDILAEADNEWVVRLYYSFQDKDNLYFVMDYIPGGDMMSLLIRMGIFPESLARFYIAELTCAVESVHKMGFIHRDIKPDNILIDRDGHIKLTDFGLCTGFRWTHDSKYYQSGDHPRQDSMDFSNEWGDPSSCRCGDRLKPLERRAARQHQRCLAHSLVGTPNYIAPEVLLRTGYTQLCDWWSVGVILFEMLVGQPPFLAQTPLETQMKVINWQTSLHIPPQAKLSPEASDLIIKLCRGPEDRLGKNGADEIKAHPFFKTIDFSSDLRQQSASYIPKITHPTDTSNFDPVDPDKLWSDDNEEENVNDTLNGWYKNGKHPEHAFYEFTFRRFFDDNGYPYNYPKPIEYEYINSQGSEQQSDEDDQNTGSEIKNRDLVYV

[4] = biological target: T4, full-length HA-MST1 wild-type (human) (UniProt Q13043); assay: as above
T4 sequence: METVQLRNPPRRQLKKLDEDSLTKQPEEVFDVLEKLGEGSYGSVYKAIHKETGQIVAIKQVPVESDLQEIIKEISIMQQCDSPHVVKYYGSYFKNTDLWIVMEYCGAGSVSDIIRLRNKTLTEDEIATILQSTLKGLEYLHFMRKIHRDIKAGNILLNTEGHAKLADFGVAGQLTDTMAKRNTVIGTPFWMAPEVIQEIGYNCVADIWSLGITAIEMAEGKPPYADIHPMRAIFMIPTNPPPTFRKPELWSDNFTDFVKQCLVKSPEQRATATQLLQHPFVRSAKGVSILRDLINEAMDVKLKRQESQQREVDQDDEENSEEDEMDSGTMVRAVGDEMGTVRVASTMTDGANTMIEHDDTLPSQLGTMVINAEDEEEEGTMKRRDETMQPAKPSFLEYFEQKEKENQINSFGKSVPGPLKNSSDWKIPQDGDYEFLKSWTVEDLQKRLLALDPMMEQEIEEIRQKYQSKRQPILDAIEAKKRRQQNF

[5] = biological target: HA-tagged wild-type human NDR2 (human) (UniProt Q9Y2H1); assay: as above
[6] = biological target: HA-tagged wild-type human NDR1 (human) (UniProt Q15208); assay: as above
[7] = biological target: fly HA-tagged Tricornered (Trc) (Drosophila) (UniProt Q9NBK5); assay: co-IP; Drosophila S2R+ cells co-expressing myc-MOB1A variants and HA-tagged Wts, Trc or Hpo; IP with anti-HA, blot anti-myc; low-stringency buffer
[8] = biological target: T5, full-length HA-Hpo(wt) (Drosophila) (UniProt Q8T0S6); assay: as above
T5 sequence: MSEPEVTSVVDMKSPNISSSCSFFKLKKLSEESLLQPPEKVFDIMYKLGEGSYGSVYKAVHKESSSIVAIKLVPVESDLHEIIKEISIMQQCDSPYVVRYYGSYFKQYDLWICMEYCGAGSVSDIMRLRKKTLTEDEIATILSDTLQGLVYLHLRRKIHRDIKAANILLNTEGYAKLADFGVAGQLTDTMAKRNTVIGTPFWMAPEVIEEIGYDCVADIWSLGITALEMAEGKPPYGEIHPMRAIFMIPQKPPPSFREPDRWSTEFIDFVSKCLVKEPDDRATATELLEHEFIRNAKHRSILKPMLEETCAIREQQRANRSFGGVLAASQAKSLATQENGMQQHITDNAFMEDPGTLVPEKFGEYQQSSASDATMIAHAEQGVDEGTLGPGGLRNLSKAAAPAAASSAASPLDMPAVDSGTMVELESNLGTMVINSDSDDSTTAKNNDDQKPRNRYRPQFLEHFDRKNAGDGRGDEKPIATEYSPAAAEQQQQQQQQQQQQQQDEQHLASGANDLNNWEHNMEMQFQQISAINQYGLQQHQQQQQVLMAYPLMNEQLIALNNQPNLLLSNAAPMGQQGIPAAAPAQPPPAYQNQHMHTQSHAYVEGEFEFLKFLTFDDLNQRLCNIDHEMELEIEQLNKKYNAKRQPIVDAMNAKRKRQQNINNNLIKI

binding [1]: no binding
binding [2]: binds
binding [3]: no binding
binding [4]: binds
binding [5]: binds
binding [6]: binds
B1: myc-tagged full-length human MOB1A(D63V) (HEK293) (protein, UniProt Q9H8S9 1-216)
chain: MSFLFSSRSSKTFKPKKNIPEGSHQYELLKHAEATLGSGNLRQAVMLPEGEDLNEWIAVNTVVFFNQINMLYGTITEFCTEASCPVMSAGPRYEYHWADGTNIKKPIKCSAPKYIDYLMTWVQDQLDDETLFPSKIGVPFPKNFMSVAKTILKRLFRVYAHIYHQHFDSVMQLQEEAHLNTSFKHFIFFVQEFNLIDRRELAPLQELIEKLGSKDR

binding [1]: no binding
binding [2]: no binding
binding [3]: no binding
binding [4]: no binding
binding [5]: binds
binding [6]: binds
B4: myc-tagged full-length human MOB1A(D63V/K104E/K105E) (HEK293) (protein, UniProt Q9H8S9 1-216)
chain: B1 chain with K104E, K105E

binding [8]: no binding
binding [7]: binds
B5: myc-tagged full-length human MOB1A(D63V/K104E/K105E) (Drosophila S2R+ cells) (protein, UniProt Q9H8S9 1-216)
chain: B1 chain with K104E, K105E

binding [5]: binds weakly
B6: myc-tagged full-length human MOB1A(E51K) (HEK293) (protein, UniProt Q9H8S9 1-216)
chain: B1 chain with E51K, V63D

binding [6]: binds
B7: myc-tagged full-length human MOB1A(K153A/R154A) (HEK293) (protein, UniProt Q9H8S9 1-216)
chain: B1 chain with V63D, K153A, R154A

More lines, now with the values behind:

B2: myc-tagged full-length human MOB1A(K153A/R154A) (Drosophila S2R+ cells) (protein, UniProt Q9H8S9 1-216)
chain: B1 chain with V63D, K153A, R154A
binding [7]: binds

B3: myc-tagged full-length human MOB1A(K153E/R154E) (Drosophila S2R+ cells) (protein, UniProt Q9H8S9 1-216)
chain: B1 chain with V63D, K153E, R154E
binding [7]: binds

B8: myc-tagged full-length human MOB1A(K153E/R154E) (HEK293) (protein, UniProt Q9H8S9 1-216)
chain: B1 chain with V63D, K153E, R154E
binding [6]: binds

Source: article PMC5612953, “Stable MOB1 interaction with Hippo/MST is not essential for development and tissue growth control” (Nature Communications, 2017)
